Measured values from PubChem BioAssay AID1508624 (National Center for Advancing Translational Sciences (NCATS), 2021).
The campaign covered roughly 48,000 compounds. About 120 (0.25%) were called active. Inconclusive results (about 4%) are left out. Calls come from the whole dose curve; as a rule, active = well fitted activation curve with a large enough effect; inconclusive = small, poorly fitted or top-dose-only effect, or another doubt; inactive = no such curve, though single readings can be large or run the other way. The list shows a part of the results.

Assay: Primary qHTS for Identification of Small Molecule Activators of Huntingtin-Antisense Promoter Activity; note: nearly all actives have a fitted effect of over 55% in size
Details: HEK293 HTT-AS promoter firefly luciferase reporter, 24 h; series mostly up to 57.5 µM; activity change, positive = activation: at the top concentration
Summary of the method: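 Luminescence was read after Dual-Glo reagent and a 10 min room-temperature incubation. Values were normalized to vehicle (0% activity) and zero RLU (-100% activity). Reporter HEK293 cells had been exposed to compounds (up to 57.5 uM final) for 24 h.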

Activity change, positive = activation, inactive:
CCOc1ccccc1NC(=O)CN1C=NS(=O)(=O)c2ccccc21 -8.23%
Cc1ccc(CCNC(=O)c2ccc(CS(=O)(=O)Cc3ccccc3F)o2)cc1 -18.2%
COc1cccc2cc(-c3nc(-c4ccc(C)cc4)c(C)s3)c(=O)oc12 8.73%
Cc1ccc(C(=O)Nc2ccc3nc(N4CCCCC4)cc(C)c3c2)cc1F -31.5%
Cc1ccc(NC(=O)CCNS(=O)(=O)c2ccc3c(c2)CCCC(=O)N3)cc1 -15%
CC(=O)c1ccc(N2C(=O)N(Cc3cc(C)ccc3C)c3ccccc3S2(=O)=O)cc1 -28.1%
Cc1cc(Nc2ccc(F)cc2)nc(-n2nc(C)cc2C)n1 -23.1%
O=S(=O)(Nc1ccc(Cl)cc1)c1cccc(S(=O)(=O)c2ccc(Cl)c(Cl)c2)c1 -23.2%
CCOC(=O)C1(C)C=C(Nc2ccc(C(=O)O)cc2)C(=O)N1c1ccc(C(=O)O)cc1 (stereo not given) -9.06%
CCCCN(C)C(=O)Cn1c(SCC(=O)Nc2ccc(C)c(C)c2)nc2ccccc21 -21.3%
CC1Cc2ccccc2N1NC(=O)c1ccc(Cl)c(S(N)(=O)=O)c1 (stereo not given)
Cc1nc2ccccc2n1CCc1nc2c3ccccc3nc(SCc3ccc(F)cc3)n2n1 -10.6%
Cc1cccc(Nc2c3c(nc4nncn24)CCC3)c1C -36.8%
COc1ccc2c(c1)c1c(c(=O)n(-c3ccccc3C)c(=O)n1Cc1c(F)cccc1Cl)n2C -0.996%
COc1ccccc1N1CCN(CC(O)COc2ccc(C)cc2C(C)(C)C)CC1 (stereo not given) -27.4%
CCOC(=O)c1c(C)oc2nc(C)nc(NCC3CCN(Cc4cccc(Cl)c4)CC3)c12 -12.3%
O=C(CSc1nc2ccsc2c(=O)n1Cc1ccccc1Cl)NCc1ccc(Cl)cc1 -10.1%
O=C(CSc1nc2ccccc2n1Cc1c(F)cccc1Cl)N1CCN(c2ccc(F)cc2)CC1 -7.74%
CCOc1cc(CNC(=O)c2ccc3nc(CCc4ccccc4)oc3c2)ccc1OC 4%
COc1ccc(NC(=O)CN2C(=O)C3(SCC(=O)N3c3cccc(OC)c3)c3ccccc32)cc1 (stereo not given) -7.77%
Cc1ccc(S(=O)(=O)NCCc2csc3nc(-c4ccccc4C)nn23)cc1 -23.4%
Cc1ccc(CNC(=O)C(C)n2ccc3cc(S(=O)(=O)N4CCCC4)ccc32)cc1 (stereo not given) -19.8%
O=C(Nc1nnc(SCc2cc(=O)n3cc(Cl)ccc3n2)s1)c1cccc(F)c1 3.39%
O=C(c1ccc2c(Cl)c3c(nc2c1)CCCC3)N1CCN(c2ccccc2F)CC1 -6.4%
COc1ccc(N2CC(NC(=O)c3c(F)cccc3Cl)CC2=O)cc1OC (stereo not given) -9.89%
CCC(C(=O)N1CCN(c2ccccc2)CC1)n1nc(C)c2sc3ccccc3c2c1=O (stereo not given) -10.7%
Cc1ccccc1NC(=O)c1cnc2sc(N3CCCC3)nn2c1=O -6.16%
CCOc1ccc(N2CC(c3nc4ccccc4n3CCOc3ccc(CC)cc3)CC2=O)cc1 (stereo not given) -15.9%
CC1=C(C(=O)Nc2cccc(C(F)(F)F)c2)C(c2ccccc2)n2ncnc2N1 (stereo not given) -14.9%
CCc1cccc(C)c1NC(=O)CCn1nc(C)c2c(C)n(-c3ccccc3)nc2c1=O -17.1%
CCOc1ccccc1O[C@H](c1ccccc1)[C@H]1CNCCO1 -2.12%
COc1ccc(NC(=O)Cc2noc3ccc(C)cc23)cc1Cl -27.6%
COc1cccc(N2CC(NC(=O)C3CC3)CC2=O)c1 (stereo not given) 3.06%
COc1ccc(NC(=O)Cn2c(=O)n(-c3ccc(C)c(C)c3)c(=O)c3c(C)c(C)sc32)cc1 0%
Cc1ccc(CCNC(=O)c2ccc(NC(=O)N3CCSc4ccccc43)cc2)cc1 -0.855%
Cc1ccc(C)c(N2CCN(c3nc4c(S(=O)(=O)c5ccccc5)nnn4c4ccc(Cl)cc34)CC2)c1 0%
CCOc1ccc2c(c1)c(=O)c(C(=O)c1ccc(CC)cc1)cn2CC(=O)Nc1ccccc1C -11.6%
COc1ccc(N2CCN(c3cc(C)nc4nncn34)CC2)cc1 -31.9%
CCOC(=O)c1c(S(=O)(=O)N2CCC(C(=O)Nc3cccc(C)n3)CC2)c(C)n(C)c1C 18.7%
CCCN(C(=O)c1cc2c(=O)oc3ccccc3c2s1)c1ccccc1C -40.8%
CCC(C)NC(=O)Cn1c(=O)ccc2cc(S(=O)(=O)N3CCCC3)ccc21 (stereo not given) -12.1%
Cc1ccc(NC(=O)Cn2nnc(C(=O)NCCc3ccccc3)c2N)cc1Cl -0.371%
CCc1ccc2c(c1)c(=O)c(S(=O)(=O)c1ccccc1)cn2CC(=O)Nc1ccc(OC)cc1 -12.9%
COCC(=O)N1c2nc(-c3ccco3)nn2C2(CCCCC2)[C@@H]2CCCC[C@@H]21 -21.9%
Cc1cccc(C#Cc2ccccc2)n1 -4.75%
Cc1cccc(N2CCN(Cc3nnc(-c4ccc5c(c4)OCO5)o3)CC2)c1C -0.418%
CCc1nn2c(=O)cc(COc3ccc(/C=C(\C#N)C(=O)Nc4ccc(C)cc4)cc3)nc2s1 -9.5%
O=C(Cn1c(=O)c2cccn2c2ccc(F)cc21)N1CCN(c2ccccc2)CC1 -3.76%
CCc1ccc(NC(=O)Cn2c(=O)n(CC3CCCO3)c(=O)c3cc(OC)c(OC)cc32)cc1 (stereo not given) -19.6%
Cc1ccc(-c2cc(C(F)(F)F)c(C#N)c(SCC(=O)O)n2)cc1 -4.89% [at 11.5 µM, percent change from vehicle, -100% = no light]
COc1ccc(NC(=O)Nc2ccccc2OCc2cc(=O)n3ccccc3n2)c(OC)c1 -0.752%
Cc1ccccc1CNC(=O)C(=O)NCC(c1cccs1)S(=O)(=O)c1ccc(Cl)cc1 (stereo not given) -38%
O=C(CN1C(=O)C2CCCCN2c2ccc(C(=O)N3CCCC3)cc21)NCc1cccc(F)c1 (stereo not given) -15.2%
Cc1cc(C)cc(NC(=O)Cn2c3ncccc3c(=O)n2-c2ccc(C)c(C)c2)c1 -16.7%
Cc1ccc(CSc2ncc(Cl)c(C(=O)Nc3sc4c(c3C(N)=O)CCCC4)n2)cc1 -13%
O=C(Cn1cnc2nc3c(cc2c1=O)CCCC3)N1CCN(c2ccccc2)CC1 1.04%
Cc1c(Cl)cccc1NC(=O)CSc1nc(=O)n(Cc2cccnc2)c2c1CCC2 -6.31%
Cc1c(Cl)cccc1-n1ncc(C(=O)Nc2ccc(F)cc2F)c1C1CCN(C(=O)OC(C)(C)C)CC1 -24.7%
O=C1CC(c2nc(-c3ccccc3)no2)CN1c1ccc2c(c1)OCCO2 (stereo not given) -5.24%
COC(=O)C1CCN(C(c2ccccc2)c2sc3nc(-c4ccco4)nn3c2O)CC1 (stereo not given) 2.37%
